# Results from patent publication US6653258B1 (priority 1987, dated 2003).
# Tested on: Tomato plants, cv. Outdoor Girl
# Assay: Phytotoxicity on tomato plants, spray to maximum retention (Table VII)
# Conditions: assessed one week after final application
# [1] = 10 ppm spray applied 3 times at 3-4 day intervals
# [2] = 30 ppm spray applied 3 times at 3-4 day intervals
# [3] = 100 ppm spray applied 3 times at 3-4 day intervals
SMILES,"phytotoxicity, linear 0-5 scale, Tomato [1]","phytotoxicity, linear 0-5 scale, Tomato [2]","phytotoxicity, linear 0-5 scale, Tomato [3]"
"CO/C=C(/C(=O)OC)c1ccccc1COc1ccccc1 [comparative compound, reference compound]",2.8,3.4,3.4
"CCN(CC)c1cccc(OCc2ccccc2/C(=C\OC)C(=O)OC)c1 [Compound 169, Table I]",0.3,0.9,1.5
